Over roughly 18,000 sequences, “TetR repression strength (sort-seq, GFP reporter)” has its median near 0.23; the highest 2% begin near 0.68. The list shows a part of the results.

Chain of UniProt P04483 (P04483 whole entry): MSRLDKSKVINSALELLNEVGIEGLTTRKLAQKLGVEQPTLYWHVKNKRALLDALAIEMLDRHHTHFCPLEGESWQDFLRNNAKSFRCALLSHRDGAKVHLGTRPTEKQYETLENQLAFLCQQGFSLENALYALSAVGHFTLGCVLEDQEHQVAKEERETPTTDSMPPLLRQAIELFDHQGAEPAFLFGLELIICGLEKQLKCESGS

The target of the test is TetR (class B, Tn10) (UniProt P04483). The test can be described thus: TetR repression strength (sort-seq, GFP reporter) (relative to tetO2 = 1); higher = stronger repression. Particulars: E. coli. A digest of the protocol:
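Escherichia coli SIG10-MAX cells carried a low-copy plasmid library in which eight operator positions were randomized between a constitutive promoter and sfGFP, and TetR was expressed constitutively. After 5 h of growth at 37 °C in LB with 50 µg/mL chloramphenicol, 10^6 cells were FACS-sorted into 13 fluorescence bins, and each bin was Illumina-sequenced. Repression strength was the top bin index plus one minus the read-weighted mean bin, divided by the value for the unaltered operator. Across three independent transformations, only library members with ≥30 reads in every replicate and a CV ≤0.5 were averaged.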
Consider TCCCTGGGAGTTATGGAGA, for which the TetR repression strength worked out at 0.215.

Sequence TCCCGGAAAGTTGGTGAGA gave a TetR repression strength of 0.27.

Sequence TCCCCACCAGTGGCGGAGA registered a TetR repression strength of 0.231.

Sequence TCCCTGTTAGTTACCGAGA gave a TetR repression strength of 0.227.

Sequence TCCCCGCGAGTGCGTGAGA yielded a TetR repression strength of 0.345.

The sequence TCCCGTGTAGTAGCGGAGA yielded a TetR repression strength of 0.182.

In the case of TCCCTAGGAGTTAATGAGA, the TetR repression strength came out at 0.208.

With TCCCAATGAGTGGGCGAGA, the TetR repression strength stood at 0.238.

TCCCAGTAAGTACGGGAGA came in with a TetR repression strength of 0.181.

Sequence TCCCTAAAAGTGTTCGAGA yielded a TetR repression strength of 0.302.

TCCCTGATAGTCGATGAGA: the TetR repression strength was found to be 0.247.

With TCCCTCACAGTCTGGGAGA, the TetR repression strength was 0.212.

Take TCCCTGAGAGTGCGCGAGA: the TetR repression strength stood at 0.173.

TCCCTATCAGTCCGAGAGA came in with a TetR repression strength of 0.324.

The sequence TCCCCTGAAGTTGGGGAGA registered a TetR repression strength of 0.146.

As for TCCCGGACAGTGGTTGAGA, the TetR repression strength amounted to 0.164.

Sequence TCCCGTCTAGTTTTGGAGA displayed a TetR repression strength of 0.311.

On to TCCCACAAAGTTGTAGAGA, for which the TetR repression strength is 0.207.

TCCCTGTAAGTCGGCGAGA gave a TetR repression strength of 0.213.

TCCCTCGCAGTCGGTGAGA: the TetR repression strength turned out to be 0.176.

Sequence TCCCTACAAGTAGGGGAGA displayed a TetR repression strength of 0.225.

In turn, TCCCGTTGAGTTAGAGAGA showed a TetR repression strength of 0.171.

In turn, TCCCATGGAGTGTAAGAGA showed a TetR repression strength of 0.236.

As to TCCCTTAAAGTGGCTGAGA, the TetR repression strength was 0.27.

TCCCCACAAGTGCACGAGA showed a TetR repression strength of 0.211.

For TCCCAGCAAGTCTAGGAGA, the TetR repression strength amounted to 0.284.

With TCCCTGCTAGTGATGGAGA, the TetR repression strength was found to be 0.562.

TCCCGGATAGTTAGGGAGA yielded a TetR repression strength of 0.336.

Sequence TCCCTTGGAGTAATAGAGA had a TetR repression strength of 0.273.

TCCCCGACAGTGACCGAGA gave a TetR repression strength of 1.08.

TCCCTGCCAGTGCTTGAGA gave a TetR repression strength of 0.139.

In the case of TCCCGTTCAGTTGCAGAGA, the TetR repression strength is 0.0605.

Sequence TCCCAATCAGTGAATGAGA gave a TetR repression strength of 0.603.

Regarding TCCCCCAGAGTAGACGAGA, the TetR repression strength came to 0.204.

Sequence TCCCCTGGAGTAATAGAGA had a TetR repression strength of 0.435.

Turning to TCCCAGAAAGTCAATGAGA, the TetR repression strength is 0.289.

Turning to TCCCAGACAGTACTGGAGA, the TetR repression strength turned out to be 0.17.

Regarding TCCCATACAGTGCTTGAGA, the TetR repression strength turned out to be 0.181.

TCCCGGTTAGTATACGAGA registered a TetR repression strength of 0.207.

TCCCCCACAGTGCGAGAGA showed a TetR repression strength of 0.213.

For TCCCGGATAGTGATCGAGA, the TetR repression strength was found to be 0.33.

The sequence TCCCGAGGAGTCGGGGAGA registered a TetR repression strength of 0.44.

Take TCCCCGGCAGTGGGCGAGA: the TetR repression strength stood at 0.199.

For the sequence TCCCGGCGAGTTTTCGAGA, the TetR repression strength was determined as 0.139.

Take TCCCCTGCAGTATGAGAGA: the TetR repression strength was 0.855.

As for TCCCGGCCAGTGCGAGAGA, the TetR repression strength was 0.212.

The sequence TCCCCACCAGTCTGCGAGA registered a TetR repression strength of 0.243.

On to TCCCTGAGAGTGCTGGAGA, for which the TetR repression strength stood at 0.564.

Turning to TCCCTGCCAGTAGAGGAGA, the TetR repression strength worked out at 0.277.

TCCCCCCTAGTCAGTGAGA returned a TetR repression strength of 0.198.

In the case of TCCCGACCAGTTGGTGAGA, the TetR repression strength turned out to be 0.387.

As to TCCCGAGGAGTGGCCGAGA, the TetR repression strength is 0.175.

The sequence TCCCTGTGAGTAGATGAGA registered a TetR repression strength of 0.255.

TCCCTTGGAGTGCGAGAGA displayed a TetR repression strength of 0.195.

As for TCCCATTTAGTTGCAGAGA, the TetR repression strength was 0.177.

On to TCCCACATAGTGCGAGAGA, for which the TetR repression strength was determined as 0.198.

The sequence TCCCCTAGAGTGGTTGAGA gave a TetR repression strength of 0.285.

In turn, TCCCAGGGAGTGGGTGAGA came in with a TetR repression strength of 0.571.

Turning to TCCCAACGAGTATGGGAGA, the TetR repression strength amounted to 0.0429.

For the sequence TCCCAGTAAGTGCCCGAGA, the TetR repression strength came to 0.0992.

TCCCTCCCAGTGGCCGAGA had a TetR repression strength of 0.384.

TCCCTGGTAGTCCGGGAGA: the TetR repression strength was determined as 0.223.

Consider TCCCACGGAGTGTGGGAGA, for which the TetR repression strength was determined as 0.15.

On to TCCCTTGGAGTGGAGGAGA, for which the TetR repression strength was 0.351.

As for TCCCGCTCAGTTGGCGAGA, the TetR repression strength stood at 0.195.

Sequence TCCCGTGAAGTGCGCGAGA showed a TetR repression strength of 0.277.

TCCCGCTCAGTGTGCGAGA registered a TetR repression strength of 0.112.

Take TCCCCATTAGTATAAGAGA: the TetR repression strength was 0.12.

TCCCATCGAGTCTTAGAGA had a TetR repression strength of 0.366.

Sequence TCCCTGCTAGTAAGGGAGA returned a TetR repression strength of 0.196.

Regarding TCCCCCGAAGTGATAGAGA, the TetR repression strength is 0.354.

Turning to TCCCGTCGAGTGCGGGAGA, the TetR repression strength came to 0.156.

Sequence TCCCGGTTAGTCAGGGAGA showed a TetR repression strength of 0.333.

TCCCTTTAAGTATATGAGA yielded a TetR repression strength of 0.12.

TCCCGGGGAGTCATAGAGA returned a TetR repression strength of 0.235.

In turn, TCCCGCGTAGTATACGAGA yielded a TetR repression strength of 0.302.

Regarding TCCCGGATAGTGCGAGAGA, the TetR repression strength was 0.325.

In turn, TCCCAAGAAGTGTGAGAGA displayed a TetR repression strength of 0.265.

For TCCCTCGAAGTCGCCGAGA, the TetR repression strength stood at 0.26.

Turning to TCCCGACAAGTAGGTGAGA, the TetR repression strength is 0.

As to TCCCGAATAGTGCATGAGA, the TetR repression strength was 0.271.

On to TCCCGTTGAGTAGTTGAGA, for which the TetR repression strength was 0.0625.

In the case of TCCCATGCAGTTTTAGAGA, the TetR repression strength was found to be 0.205.

As to TCCCTGAAAGTGTTAGAGA, the TetR repression strength worked out at 0.311.

In the case of TCCCCAGGAGTTCATGAGA, the TetR repression strength turned out to be 0.248.

Take TCCCTTCTAGTCCGAGAGA: the TetR repression strength stood at 0.336.

TCCCTGGTAGTGTATGAGA had a TetR repression strength of 0.147.

With TCCCGCGGAGTTCGGGAGA, the TetR repression strength was 0.169.

TCCCTCCTAGTTTCCGAGA returned a TetR repression strength of 0.418.

With TCCCTTCTAGTTGCTGAGA, the TetR repression strength came to 0.73.

TCCCGGTGAGTATGCGAGA displayed a TetR repression strength of 1.15.

In the case of TCCCAAGGAGTTTAAGAGA, the TetR repression strength amounted to 0.357.

Take TCCCAGAAAGTAGTCGAGA: the TetR repression strength amounted to 0.214.

In turn, TCCCCCTTAGTCTAAGAGA had a TetR repression strength of 0.228.

In turn, TCCCGGCAAGTGTGCGAGA came in with a TetR repression strength of 0.191.

As for TCCCGGGAAGTGGGCGAGA, the TetR repression strength worked out at 0.164.

In turn, TCCCAGAAAGTCAGTGAGA had a TetR repression strength of 0.298.

For TCCCGGGGAGTATCGGAGA, the TetR repression strength turned out to be 0.0558.

In turn, TCCCAGCTAGTGTTGGAGA had a TetR repression strength of 0.197.

TCCCAATGAGTAAAGGAGA: the TetR repression strength is 0.364.

TCCCCGATAGTGTGTGAGA yielded a TetR repression strength of 0.191.

Regarding TCCCAGCCAGTCGCAGAGA, the TetR repression strength came out at 0.301.
